According to PubChem BioAssay AID463173 (ICCB-Longwood Screening Facility, Harvard Medical School, 2010):
Among all 52,000 compounds or so, about 4,300 (8.3%) were called active. Cut-off read from the data, not from the text of the source: active = survival mostly below about 52% (no sharp cut-off); inactive = mostly above about 56%. Some of the results follow.

These compounds were tested on DeltatarO mutant (assay: growth inhibition of S. aureus wild type versus tarO mutant, primary screen, teichoic acid synthesis inhibitors, RN4220, OD600 (AID 463173)). Settings: OD600, 18 h, active compounds read low, screened at 18.75 µg/mL (by protocol).

SMILES | survival
CCN(CC)C(=O)Cn1c(=O)cc(C)c2c(C)nn(-c3cccc(Cl)c3C)c21 | inactive: 87%
COc1cccc(CNC(=O)C2CCC(CNS(=O)(=O)c3ccc4c(c3)CCCC(=O)N4)CC2)c1 (configuration not stated) | inactive: 94%
Cc1ccc(NC(=O)CSc2nnc3scc(-c4ccc(Cl)cc4)n23)cc1 | inactive: 49%
CCN(CC)CCCNc1oc(/C=C/c2ccc(OC)c(OC)c2)nc1C#N | inactive: 71%
COc1ccc(NC(=O)Cn2cc(S(=O)(=O)N3CCN(c4ccccc4F)CC3)c3ccccc3c2=O)cc1Cl | inactive: 85%
CCC(=O)n1c2c(c3ccccc31)Nc1ccccc1N2 | inactive: 82%
Cc1ccc(Nc2nc3nonc3nc2Nc2cccc(C(F)(F)F)c2)cc1Cl | active: -1%
CCOC(=O)C1=C(CN2CCN(c3ccc(OC)cc3)CC2)NC(=O)NC1c1ccc(OC)cc1 (configuration not stated) | inactive: 119%
CNc1c(NC(=O)c2ccc(OC)c(OC)c2)c(=O)oc2ccccc12 | inactive: 92%
CCOc1ccc(-c2cc(C(=O)N3CCN(c4cc(Cl)ccc4C)CC3)c3ccccc3n2)cc1 | inactive: 58%
COc1ccc(C)cc1NC(=O)c1noc2c1CSc1ccccc1-2 | inactive: 78%
COc1ccc(C2C(C(=O)Nc3ccccc3)=C(C)Nc3c(C(=O)Nc4ccccc4)cnn32)cc1 (configuration not stated) | inactive: 126%
Cc1nc(N2CCCC2)c2c(C(=O)N3CCN(c4ccccc4)CC3)c(C)oc2n1 | inactive: 81%
Cc1cc2c(n1-c1ccc(C(=O)NCCc3ccc(Cl)cc3)cc1)CCCC2 | inactive: 124%
CC(=O)N1CCN(S(=O)(=O)c2ccc(C)cc2)C1C(C)C (configuration not stated) | inactive: 106%
CCC(Cn1nnc2ccccc2c1=O)NC(=O)Nc1cc(C)cc(C)c1 (configuration not stated) | active: 41%
CC(C)C(=O)Nc1nnc2n1CCS2 | inactive: 101%
CCOc1ccc(CNC(=O)c2cccc(NC(=O)N3CCSc4ncccc43)c2)cc1OC | inactive: 92%
CCc1ccc(C(=O)c2cn(CC(=O)Nc3ccc(Cl)cc3)c3cc4c(cc3c2=O)OCO4)cc1 | inactive: 146%

SMILES | survival
CCOc1cc2sc(N3CCC(C(=O)Nc4ccc(CC)cc4)CC3)nc2cc1Br | inactive: 86%
CC(=O)N1CCCc2cc(S(=O)(=O)N3CCCC(C(=O)N4CCN(c5cccc(Cl)c5)CC4)C3)ccc21 (configuration not stated) | inactive: 81%
Cc1ccc(C)c(CSc2nnc3[nH]c(=O)cc(C)n23)c1 | inactive: 67%
Cc1ccc(S(=O)(=O)n2nc(C)c(S(=O)(=O)N3CCCCCC3)c2C)cc1 | inactive: 109%
CC(C)c1nn2c(=O)cc(COC(=O)c3cccc(NC(=O)COc4ccc(F)cc4)c3)nc2s1 | inactive: 89%
COc1ccc(NC(=O)Cn2c(=O)n(-c3cc(C)cc(C)c3)c(=O)c3oc4ccccc4c32)cc1OC | inactive: 68%
COc1cc(CN2CCN(C3CCCCCC3)CC2)cc(OC)c1OC | inactive: 87%
O=C(NCCc1ccccc1)c1nn(-c2ccccc2F)nc1CO | inactive: 88%
Cc1ccc2c(CNCCc3ccccc3)c(C(=O)O)n(Cc3ccccc3C)c2c1 | active: 6%
COCCNC(=O)CCC(=O)NNc1nc2ccccc2c2nc(C)nn12 | inactive: 82%
CCOc1ccccc1NC(=O)c1c(NC(=O)COc2ccc(Cl)cc2)sc2c1CCCCC2 | inactive: 62%
O=C(CN1CCC(N2CCCCC2)CC1)NC12CC3CC(CC(C3)C1)C2 | inactive: 95%
CS(=O)(=O)N1CCc2cc(C(=O)N3CCN(c4cccc(Cl)c4)CC3)ccc21 | inactive: 49%
COc1ccc(Br)cc1C1C(C(=O)Nc2ccc(C)cc2C)=C(C)Nc2ncnn21 (configuration not stated) | inactive: 76%
Cc1ccc(NC(=O)C2(c3cccs3)CCOCC2)cc1Cl | inactive: 83%
Cc1ccc(C)c(N2CCN(C(=O)c3cn(CC(C)C)c(=O)c4c3c3ccccc3n4C)CC2)c1 | inactive: 28%
COCCCNc1nc(NCc2ccccc2OC)c2cnn(C)c2n1 | inactive: 107%
Cc1ccc(C)c(CSc2nc(-c3ccccc3F)nc3c2Cc2c(CO)cnc(C)c2O3)c1 | inactive: 108%
CCC1CC(/C(C)=N/NC(N)=O)OC1=O (configuration not stated) | inactive: 71%

SMILES | survival
COc1ccccc1C(=O)Nc1ccc(NC(=O)c2cccs2)cc1 | inactive: 51%
COc1ccc(Nc2cc(C(=O)NCCCN(C)Cc3ccccc3)c3ccccc3n2)c(OC)c1 | inactive: 66%
CCOc1ccc(S(=O)(=O)NCC(c2ccco2)S(=O)(=O)c2ccc(C)cc2)cc1 (configuration not stated) | inactive: 55%
COc1ccccc1NC(=O)N1CCN(c2nnc(C)c3c(C)n(-c4ccc(Cl)cc4)nc23)CC1 | inactive: 75%
CC(C)N(C(=O)CSc1nnc(-c2cccs2)o1)C(C)C | inactive: 61%
CCOc1ccccc1NC(=O)COC(=O)c1cn(CC)c2nc(C)ccc2c1=O | inactive: 61%
COc1cc(-c2nc3ccccn3c2Nc2ccccc2C)ccc1O | inactive: 57%
COc1ccc(OC)c(C2c3c(-c4ccc(Br)cc4)n[nH]c3C(=O)N2c2ccc(Cl)cc2)c1 (configuration not stated) | inactive: 89%
CCOc1ccc(NC(=O)c2ccc3c(SCC(=O)O)c4c(nc3c2)CCC4)cc1 | inactive: 90%
CC1(C)Cc2[nH]c(=S)c(C#N)cc2CO1 | inactive: 88%
CCOc1ccccc1-c1noc(CSc2nnc(-c3ccccc3)n2-c2cccc(C)c2)n1 | inactive: 62%
CCOC(=O)c1c(Nc2cccc(C(=O)OC)c2)nnc(-c2ccccc2)c1-c1ccccc1 | active: 16%
CCn1nc(C(C)C(=O)O)c2ccccc2c1=O (configuration not stated) | inactive: 78%
Cn1nc(-c2ccccc2F)c2cc(C(=O)NCc3ccc(Cl)cc3)sc21 | inactive: 87%
COc1ccc(C2=C(C(C)=O)Sc3nnc(-c4ccc(C)cc4)n3N2C(C)=O)cc1OC | inactive: 95%
CC(=O)N(CC(C)C)c1nnc(-c2cccnc2)s1 | inactive: 73%
CC1CCc2c(sc(NC(=O)Cn3nnc(-c4ccc(C(F)(F)F)cc4)n3)c2C#N)C1 (configuration not stated) | inactive: 67%
COc1ccc(CC(=O)NCCc2sc(-c3ccc(Cl)cc3)nc2C)cc1OC | inactive: 80%
OP(Oc1ccccc1)(Oc1ccccc1)=P(O)(Oc1ccccc1)Oc1ccccc1 | inactive: 97%
